Assay results reported in patent US20260274921A1 (ADAPTOCUE, published 2026).

Key:
[1] = target: T1, human CD47 (cluster of differentiation 47), on cells (human, UniProt Q08722); experiment: cell-based or functional assay
[2] = target: T1, human CD47 (cluster of differentiation …); experiment: FACS on primary human T cells
[3] = target: T1, human CD47 (cluster of differentiation …); experiment: FACS on primary human platelets, pH 7.3
Description: Human primary platelets were seeded into 96-well plate at 1×10⁶/well and incubated with Fc blocking antibody at room temperature. […] After washing the platelets with 1×PBS+2% FBS at pH 7.3, FITC-labelled anti-human IgG Fc secondary antibody (Abcam, CAT #ab6854) were added and incubated at 4° C. for 30 minutes at pH 7.3. After washing, the platelets were then analyzed by FACS in 1×PBS+2% FBS at pH 7.3.

[4] = target: T2, His-tagged CD47 extracellular domain (ECD) protein (Abclonal, CAT #RP01306) (human, UniProt Q08722 part only); experiment: ELISA, coated Fc fusion, His-tagged CD47 ECD in solution (monovalent), pH 7.2
T2 construct: extracellular domain; Bought; also called recombinant human CD47 protein with His-tag; His-tag human CD47 ECD protein

[5] = target: T2, His-tagged CD47 extracellular domain …; experiment: ELISA against immobilized human CD47, pH 6.0 and pH 7.3
[6] = target: T1, human CD47 (cluster of differentiation …); experiment: FACS on Raji cells
[7] = target: T1, human CD47 (cluster of differentiation …); experiment: FACS on Raji cells, pH 7.3 and pH 6.0
[8] = target: T1, human CD47 (cluster of differentiation …); experiment: FACS on Raji cells, acidic and physiological pH

B1: SIN-300, wild type SIRPαV2 IgV-IgG1 Fc fusion protein (Fc fusion)
chain: not shown
notes: homodimer, bivalent (format FV-2); also called SIRPαV2 WT IgV-IgG1 Fc
**Q.** B1 was tested. Which “ADCC activity, Jurkat-NFAT-Luc2-CD16 V158 reporter assay against Raji cells, pH 6.0” value [1] did it give?
**A.** ~0.333 fold of the peak at pH 7.2

**Q.** What about the “peak binding MFI relative to that of the Hu5F9 analog” value [2] of the same binder?
**A.** < 0.5 fold of Hu5F9 analog

**Q.** What about the “peak binding MFI relative to that of the Hu5F9 analog” value [3] of the same binder?
**A.** < 0.333 fold of Hu5F9 analog

B2: SIN-303, SIRPαV2 Q52H IgV-IgG1 Fc (Fc fusion)
chain: not shown
notes: format FV-2
**Q.** Does B2 bind [4]?
**A.** binds

B3: SIN-304, SIRPαV2 K68H IgV-IgG1 Fc (Fc fusion)
chain: not shown
notes: format FV-2
**Q.** Does B3 bind [4]?
**A.** binds

B4: SIN-368, SIRPαV2 IgV K53H-K53H-IgG1 Fc (Fc fusion)
chain: not shown
notes: four IgV monomers in all; also called tetravalent SIRPαV2 IgV K53H-IgG1 Fc fusion protein
**Q.** Does B4 bind [5]?
**A.** binds

B5: SIN-318, SIRPγ WT IgV-IgG1 Fc (Fc fusion)
chain: EEELQMIQPEKLLLVTVGKTATLHCTVTSLLPVGPVLWFRGVGPGRELIYNQKEGHFPRVTTVSDLTKRNNMDFSIRISSITPADVGTYYCVKFRKGSPENVEFKSGPGTEMALGAKPS[human IgG1 Fc not printed]
**Q.** Does B5 bind [6]?
**A.** binds

B6: SIN-319, SIRPγ K53H IgV-IgG1 Fc (Fc fusion)
chain: EEELQMIQPEKLLLVTVGKTATLHCTVTSLLPVGPVLWFRGVGPGRELIYNQHEGHFPRVTTVSDLTKRNNMDFSIRISSITPADVGTYYCVKFRKGSPENVEFKSGPGTEMALGAKPS[human IgG1 Fc not printed]
**Q.** Does B6 bind [7]?
**A.** binds

B7: SIN-320, SIRPγ R69H IgV-IgG1 Fc (Fc fusion)
chain: EEELQMIQPEKLLLVTVGKTATLHCTVTSLLPVGPVLWFRGVGPGRELIYNQKEGHFPRVTTVSDLTKHNNMDFSIRISSITPADVGTYYCVKFRKGSPENVEFKSGPGTEMALGAKPS[human IgG1 Fc not printed]
**Q.** Does B7 bind [7]?
**A.** binds

B8: SIN-321, SIRPγ K68H IgV-IgG1 Fc (Fc fusion)
chain: EEELQMIQPEKLLLVTVGKTATLHCTVTSLLPVGPVLWFRGVGPGRELIYNQKEGHFPRVTTVSDLTHRNNMDFSIRISSITPADVGTYYCVKFRKGSPENVEFKSGPGTEMALGAKPS[human IgG1 Fc not printed]
**Q.** Does B8 bind [7]?
**A.** binds

B9: SIN-322, SIRPγ Q52H IgV-IgG1 Fc (Fc fusion)
chain: EEELQMIQPEKLLLVTVGKTATLHCTVTSLLPVGPVLWFRGVGPGRELIYNHKEGHFPRVTTVSDLTKRNNMDFSIRISSITPADVGTYYCVKFRKGSPENVEFKSGPGTEMALGAKPS[human IgG1 Fc not printed]
**Q.** Does B9 bind [7]?
**A.** binds

B10: SIN-323, SIRPγ K53H + L37Q + N101D IgV-IgG1 Fc (Fc fusion)
chain: EEELQMIQPEKLLLVTVGKTATLHCTVTSLLPVGPVQWFRGVGPGRELIYNQHEGHFPRVTTVSDLTKRNNMDFSIRISSITPADVGTYYCVKFRKGSPEDVEFKSGPGTEMALGAKPS[human IgG1 Fc not printed]
**Q.** Does B10 bind [8]?
**A.** binds

B11: SIN-324, SIRPγ R69H + L37Q + N101D IgV-IgG1 Fc (Fc fusion)
chain: EEELQMIQPEKLLLVTVGKTATLHCTVTSLLPVGPVQWFRGVGPGRELIYNQKEGHFPRVTTVSDLTKHNNMDFSIRISSITPADVGTYYCVKFRKGSPEDVEFKSGPGTEMALGAKPS[human IgG1 Fc not printed]
**Q.** Does B11 bind [6]?
**A.** binds

B12: SIN-361, SIRPγ K53H + N101D IgV-IgG1 Fc (Fc fusion)
chain: EEELQMIQPEKLLLVTVGKTATLHCTVTSLLPVGPVLWFRGVGPGRELIYNQHEGHFPRVTTVSDLTKRNNMDFSIRISSITPADVGTYYCVKFRKGSPEDVEFKSGPGTEMALGAKPS[human IgG1 Fc not printed]
**Q.** Does B12 bind [8]?
**A.** binds

B13: SIN-325, SIRPβ2 H101D IgV-IgG1 Fc (Fc fusion)
chain: EEELQVIQPDKSISVAAGESATLHCTVTSLIPVGPIQWFRGAGPGRELIYNQKEGHFPRVTTVSDLTKRNNMDFSIRISNITPADAGTYYCVKFRKGSPDDVEFKSGAGTELSVRAKPS[human IgG1 Fc not printed]
notes: also called SIPRβ2 H101D IgV-IgG1 Fc
**Q.** Does B13 bind [6]?
**A.** binds

B14: SIN-328, SIRPβ2 K68H + H101D IgV-IgG1 Fc (Fc fusion)
chain: EEELQVIQPDKSISVAAGESATLHCTVTSLIPVGPIQWFRGAGPGRELIYNQKEGHFPRVTTVSDLTHRNNMDFSIRISNITPADAGTYYCVKFRKGSPDDVEFKSGAGTELSVRAKPS[human IgG1 Fc not printed]
**Q.** Does B14 bind [7]?
**A.** binds

B15: SIN-329, SIRPβ2 Q52H + H101D IgV-IgG1 Fc (Fc fusion)
chain: EEELQVIQPDKSISVAAGESATLHCTVTSLIPVGPIQWFRGAGPGRELIYNHKEGHFPRVTTVSDLTKRNNMDFSIRISNITPADAGTYYCVKFRKGSPDDVEFKSGAGTELSVRAKPS[human IgG1 Fc not printed]
**Q.** Does B15 bind [7]?
**A.** binds
